This is an account of results in ChEMBL document CHEMBL4888484, “Replenishing the malaria drug discovery pipeline: Screening and hit evaluation of the MMV Hit Generation Library 1 (HGL1) against asexual blood stage Plasmodium falciparum ,using a nano luciferase reporter read-out” (2022).

Among all 150,000 compounds or so, about 540 (0.36%) showed an effect of 50% or more. Some of the results follow.

The experiment has as its system Plasmodium falciparum. Description: Primary screen in NF54 nanoGlo assay, in single point, at 2uM, 72h; a lower Z score goes with more inhibition. The experiment is classed as functional, Erythrocyte. The note with it: timepoint 72 hour.
As to `COC(=O)c1cn(CCNC(=O)Nc2ccc(N(C)C)cn2)nn1`, the “% Inhibition” value came out at 27% and the Z score is on record as -3.9.

Consider `CC(C)Cc1noc([C@H](C)NC(=O)N2CCNC(=O)CC2)n1`, for which the “% Inhibition” value was determined as 9% and the Z score is recorded as -1.53.

On to `Cn1cc(S(=O)(=O)N2CCO[C@H](C(=O)C3CC3)C2)cn1`, for which the “% Inhibition” value is reported as -3% and the Z score stood at 0.42.

With `CC(NCC(c1ccco1)N1CCCC1)c1cc2n(n1)CCC2` (centres undefined), the “% Inhibition” value is -5% and the Z score came out at 0.63.

Regarding `O=C(NC[C@H]1CCCS1(=O)=O)c1cc(F)c[nH]1`, the “% Inhibition” value was 11% and the Z score is -1.27.

As to `CCOc1ccccc1NC(=O)Cn1cccc1-c1nnc(C2CC2)o1`, the “% Inhibition” value is -14% and the Z score turned out to be 2.46.

In the case of `C[C@@H](CC(=O)N1CC[S+]([O-])CC1)c1cccc(C(F)(F)F)c1`, the “% Inhibition” value is listed as -11% and the Z score was 1.14.

With `Cc1cc2c(N3CCC(NCc4noc(C5CCC5)n4)CC3)ncnc2s1`, the “% Inhibition” value was -11% and the Z score came to 1.39.

For the molecule `COc1cccc(NC(=O)N2CCN(C(=O)CN3CCc4sccc4C3c3cccc(F)c3)CC2C)c1` (centres undefined), the “% Inhibition” value worked out at 3% and the Z score is -0.4.

On to `O=C(CCc1nnc(C2CCCCC2)o1)NCc1ccc2c(c1)OCO2`, for which the “% Inhibition” value is reported as -4% and the Z score turned out to be 0.64.

As to `Cc1c(CN2CCN(C3CCN(C)CC3)[C@@H](CCO)C2)[nH]c2c(Cl)cccc12`, the “% Inhibition” value was determined as 13% and the Z score is reported as -2.05.

With `Cc1ccn2c(NC(=O)c3cccc(S(=O)(=O)N4CCOCC4)c3)c(-c3cccs3)nc2c1`, the “% Inhibition” value is listed as -11% and the Z score is given as 1.51.

For `O[C@H](COc1ccc(Br)cc1)CN(Cc1ccccc1)Cc1ccccc1`, the “% Inhibition” value is listed as -6% and the Z score is 0.76.

As for `O=C(c1ccc(-n2cccn2)nc1)N1CCO[C@H](c2ccccc2)CC1`, the “% Inhibition” value stood at 4% and the Z score is -0.47.

Consider `CN(C(=O)c1cc(=O)[nH]c2ccccc12)[C@H]1CCCN(CCCc2ccccc2)C1`, for which the “% Inhibition” value came to 6% and the Z score is reported as -0.88.

Turning to `CCN(CC)CCNCc1ccc(C)s1`, the “% Inhibition” value is -12% and the Z score is given as 1.33.

In the case of `CCn1nc2n(c1=O)CCN(C(=O)c1ccnnc1)[C@@H]2c1ccccc1`, the “% Inhibition” value was -10% and the Z score came to 1.59.

As for `CCOC(=O)N1CCC2(CC1)N=C(c1ccccc1O)C[C@@H](c1ccccc1O)N2`, the “% Inhibition” value is listed as -12% and the Z score is on record as 1.38.

Turning to `COc1ccc2c(c1)CCN(C[C@H]1CCOC1)C2`, the “% Inhibition” value was -1% and the Z score came to 0.26.

In the case of `Cc1c(Cl)cccc1NC(=O)NC[C@H](c1cccnc1)c1c[nH]c2ccccc12`, the “% Inhibition” value is on record as -5% and the Z score amounted to 1.04.

`O=c1c[n+]([O-])c2ccccc2n1OCc1ccccn1`: the “% Inhibition” value is on record as -13% and the Z score worked out at 1.79.

Consider `CC[C@H]1C(=O)NCCN1c1c(C#N)c(=O)n(C)c(=O)n1C`, for which the “% Inhibition” value is reported as -9% and the Z score amounted to 1.18.

Turning to `Cc1nc2c(c(=O)n1C)CN(C(=O)c1c[nH]nc1-c1ccccc1)C2`, the “% Inhibition” value is 12% and the Z score was -1.7.

Consider `Cc1cccc(NC(=O)N2CC(n3cc(C4CC4)nn3)C2)c1`, for which the “% Inhibition” value came to 6% and the Z score is given as -0.72.

As to `Cc1c(NC(=O)Cn2c(COc3ccccc3)nc3ccccc32)c(=O)n(-c2ccccc2)n1C`, the “% Inhibition” value was -17% and the Z score came to 3.23.

For the molecule `CC(C)CCNC(=O)[C@@H]1COCCO1`, the “% Inhibition” value is -8% and the Z score is 1.09.

In the case of `Cc1nsc(NCC2(O)CCCC2)n1`, the “% Inhibition” value was -9% and the Z score is 1.13.

Consider `CCN(C(=O)c1cc(C(C)C)n(C)n1)[C@@H](C)COC`, for which the “% Inhibition” value is recorded as -3% and the Z score was 0.33.

Consider `O=C(O)Cc1occc1C(=O)N1CCC2(CCCCC2)C1`, for which the “% Inhibition” value was found to be 13% and the Z score is listed as -1.69.

As for `CCn1cc(C(CC(=O)NC(C)CCc2ccccc2)c2cccc(Cl)c2)c2ccccc21` (centres undefined), the “% Inhibition” value was -13% and the Z score was 1.74.

In the case of `CC1(C)OCC[C@@H]1NCc1ccc(Cn2cccn2)cc1`, the “% Inhibition” value is given as -8% and the Z score is 1.44.

Consider `O=C(Nc1ccc(C2CC2)c(F)c1)N1CCC(Nc2nccs2)CC1`, for which the “% Inhibition” value was -10% and the Z score is listed as 1.32.

In the case of `COCCS(=O)(=O)N1CCN(c2cccc3[nH]cnc23)CC1`, the “% Inhibition” value is given as -5% and the Z score is listed as 1.02.

For `Cc1ccc(NC(=O)Cn2cnc3c(C(N)=O)nsc3c2=O)c(C)c1`, the “% Inhibition” value is -20% and the Z score stood at 2.65.

In the case of `O=S(=O)(NCC1(C2CC2)CCC1)c1cncc(Cl)c1`, the “% Inhibition” value is listed as -9% and the Z score turned out to be 0.97.

With `COc1cccc(CC2(C(=O)O)CCN(c3ncnc4[nH]ccc34)CC2)c1`, the “% Inhibition” value is given as -9% and the Z score is recorded as 1.05.

As to `O=C(Nc1ccc2c(c1)OCO2)c1cc(-c2cccc3ccccc23)[nH]n1`, the “% Inhibition” value is 1% and the Z score is on record as -0.15.

On to `Cn1cc(NC(=O)CN2CCC[C@H](C(=O)Cc3ccccc3)C2)cn1`, for which the “% Inhibition” value was found to be 1% and the Z score is given as -0.08.

`CCn1ncnc1-c1nccn1CCOc1ccccc1`: the “% Inhibition” value is -2% and the Z score worked out at 0.21.

As to `CCn1nnnc1NC(=O)N[C@@]1(C)CCOc2ccccc21`, the “% Inhibition” value was -4% and the Z score came out at 0.64.

Regarding `Cc1ccc(OCC(=O)Nc2cc3ccccc3cc2NC(=O)COc2ccc(C)cc2)cc1`, the “% Inhibition” value was determined as 10% and the Z score was -1.23.

For the molecule `Cc1nn(C)c(C)c1-c1cc(C(=O)N[C@@H](C)[C@H](O)c2ccccc2)n(C)n1`, the “% Inhibition” value is recorded as -5% and the Z score was 0.9.
